According to patent US6800770B2, “Anti-spasticity of an eicosanoid analog” (Virginia Commonwealth University, priority 2002, dated 2004):

System: CB1 as well as other G-protein-coupled receptors (rat hippocampal membranes)
Experiment: [35S]GTPγS binding to rat hippocampal membranes
Assay type: biochemical

CCCCC/C=C\C/C=C\C/C=C\C/C=C\CCCC(=O)N(Cc1ccc(O)c(Cl)c1)Cc1ccc(O)c(Cl)c1 [O-2093, N,N-Di-3-chloro-4-hydroxybenzylarachadonamide]
GTPgammaS binding (Emax): −30 (−11.3 to −39.9)
